# Test results reported in the supplement of paper PMC11417369.
# ± gives the standard deviation of the averaged measurements. This is one part of the list.
# System: PfAP2-LT AP2 domain (GST-tagged)
# Assay: gcPBM binding intensity (ln(normalized median fluorescence intensity)); higher = stronger DNA binding
# In short: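 An Agilent 4 × 180k array of primer-extended double-stranded 36-bp intergenic genomic probes, with negative controls, was incubated for 1 h with GST-tagged P. falciparum DNA-binding domains expressed in E. coli. Alexa488 anti-GST antibody detected bound protein, scanned at 488 nm. Binding intensity is the highest Masliner-normalised natural-log median intensity across replicate spots of either probe orientation.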
row,Sequence,gcPBM binding intensity (ln)
1,ATGTTGCACAATGTTACACACACAATATATATCGTT [CACACA_site4833],9.62 ± 0.26
2,TATATTAGAAGAAATTCACACATTCATGTAATCTTA [CACACA_site4706],8.53 ± 0.42
3,TATTATTTTTCCTAATGTACAAAATATATATTTTTA [XGTACX_site2727],8.36 ± 0.49
4,TTTGAATATATAAATATGCACACTTCTATTATAAAT [CACACA_site3359],8.69 ± 0.47
5,TTCTTATATAAATACACACACAAAATATCTACAATG [CACACA_site4568],9.22 ± 0.3
6,TACTTACAGATAATAACACACAAGAAAAAAATAAAA [CACACA_site4716],8.96 ± 0.49
7,ATATAAATGTATATGACACACATATATATATATATA [CACACA_site889],9.94 ± 0.099
8,AAAAAACAGACATACACACACACACGGATATTTATA [CACACA_site7570],9.99 ± 0.24
9,TACAAATATGGACACACACACATATTTATATTTATA [CACACA_site6420],9.73 ± 0.4
10,TATATATATATCAAGTGTACTTGTGTTTGTAATATT [XGTACX_site8854],9.03 ± 0.39
11,AATATTTATGGGTGCACACAAACATACAGATATATA [CACACA_site5810],9.21 ± 0.41
12,TTTTTTTTGTTGTTGTTGCACTTGATAGGAATGGCT [GTGCAC_site9701],8.77 ± 0.52
13,AAAAAAAACAGACACACACACAAATACATACACAAA [CACACA_site705],9.72 ± 0.31
14,CCATTTACAAAAAGGAGTACACAAATATATGTTTAA [XGTACX_site649],8.63 ± 0.51
15,AAAATAAATAAATACACACACACGAATATATATATA [CACACA_site1683],9.99 ± 0.17
16,TTTTAAAAATAATAAATAAATAAAATTGAAGTTCCA [CACACA_negctrl_site305],8.12 ± 0.45
17,TATATTTATTTATATACACACACTTGTATAAAAAAT [CACACA_site2036],8.81 ± 0.39
18,TATATACAGAAACACACACACACATATATATATATA [CACACA_site2247],10.15 ± 0.057
19,TATATCAAAATACATACACACATTTGTATATACATT [CACACA_site2696],9.05 ± 0.44
20,TTAAATATTTTTAGAGTGCATGTAATAAAAATATAA [GTGCAC_site9414],8.43 ± 0.44
21,TATCTATATGGGAACACACTCATAAATATATATCTA [CACACA_site4815],8.76 ± 0.41
22,TATATATATATATTTACACACATTCATATAAATTCA [CACACA_site3532],9.04 ± 0.28
23,AATATGAACGGACACACACACACAAAAAAAAAAAAA [CACACA_site5154],10 ± 0.64

row,Sequence,gcPBM binding intensity (ln)
1,GCCTACAGACTTAGTAGTACATGAGAAGATATATAT [XGTACX_site2269],8.79 ± 0.28
2,AAAATTTTTAAATATTGTACTATTTATTTTTAGCAT [XGTACX_site6190],8.51 ± 0.45
3,AAATAATATTTATACACACACACATATTTATATACA [CACACA_site6403],9.66 ± 0.11
4,TTATTTTATTTTGAAGCATGCTTTTTGCTGTGATAA [TGCATGCA_site278],8.46 ± 0.43
5,TTATGCGTTTGCAAAAGTACATATCTATTATTTTTA [XGTACX_site7609],8.53 ± 0.4
6,TATAAAAATATTTAATGTACGAATCTGTGATATATC [XGTACX_site7881],8.54 ± 0.45
7,ATATATTACATATGTGTGCACGTTCCAAAATTTTTA,9.19 ± 0.33
8,CTAAACAGAATTATCACACATATAAATATAAACATA [CACACA_site4560],8.79 ± 0.42
9,TTTTCATGTTGTAAAGCATGCTTTACTCATAAAAAA [TGCATGCA_site917],8.29 ± 0.5
10,ATTATTAAAAGAAGAAGTACTTATATATTAATATTA [XGTACX_site5227],8.4 ± 0.48
11,GGTCTTATTTTTAGTAGTACAAATATAATATACATA [XGTACX_site6483],8.57 ± 0.44
12,TTTTTTTTTTTTTGTTGTACCCATCATATATACATA [XGTACX_site4342],8.66 ± 0.47
13,CAACTAACATATATTCAACACACATATACCTTCAAC [CACACA_site8988],9.18 ± 0.29
14,ATAATATCATAATATTGTACATATTTTATTTTAAAT [XGTACX_site1115],8.55 ± 0.4
15,TTTTTTGTTTGAATGGTGCATTTTGTAATTATATTT,8.84 ± 0.43
16,TTAAAATAGATATTAGTGCAAAAAAAAAAAAATAAA,8.64 ± 0.57
17,TTTTGATATAAATATTAGATTAATAAATAAAAAAAT [CACACA_negctrl_site1635],8.34 ± 0.49
18,TTCACATACAGAAACACACACATATTTATAAATTAA [CACACA_site7699],9.32 ± 0.33
19,AAAAGAAAATTAAATTAACACACATAAATATATATA [CACACA_site8482],8.84 ± 0.53
20,TTTTTAATTAACTTTTTATAAATAAATAAAAATATA [GTGCAC_negctrl_site334],7.83 ± 0.38
21,ATTATTTAATTTTATTAAAAAAAAACAAATTAACAG [GTGCAC_negctrl_site152],8.19 ± 0.49
22,TAACATATTATATATACATGCATACGTGAACTAATC [TGCATGCA_site888],8.89 ± 0.44
23,GATATATTATTTGAATGTACATATTATATTTATATT [XGTACX_site907],8.78 ± 0.3

row,Sequence,gcPBM binding intensity (ln)
1,ATTGTATATGTATATGCACACAATATATGTACTTAT [CACACA_site2611],9.11 ± 0.35
2,TTTTTTTAGTTAATTAAACACACAAAAAAAAAAATA [CACACA_site9301],8.32 ± 0.4
3,GTTAGAATTGTTAGGTGGTCAAAAAGGAGAAAAAAA [XGTACX_site2086],8.56 ± 0.51
4,TTTATGCACGCGTGCACACACATATGAAAAAAGGTA [CACACA_site3315],9.45 ± 0.3
5,TATGTTTAAATATATTGTACGCACGTATGTTTTTAA [XGTACX_site1108],8.76 ± 0.4
6,ACAAATAAATATATATGTACATATATTTTTTTATTT [XGTACX_site2989],8.7 ± 0.38
7,TTTTATTTATATTATACACACAAGGAAAAAAAAAAA [CACACA_site7690],8.66 ± 0.34
8,TATATATTAAAAATAGTGCAAAATAATATATATATA [GTGCAC_site9716],8.99 ± 0.38
9,AATACCTTTTAATAATGTACAAACAAAAATTAGAGA [XGTACX_site6850],8.67 ± 0.51
10,AAGGGGAGAAAAATAAACGAAATATATACATACATA [XGTACX_negctrl_site88],8.88 ± 0.52
11,ATATATATATATATATGTACATATTCATCTTATTCT [XGTACX_site1537],9.83 ± 0.26
12,ATGTCTATATATTAAGGTACACATATATGCTATTCA [XGTACX_site6008],8.96 ± 0.47
13,TTTTAGTTAATTCATGCATGTAAAGTTTTATTTATA [TGCATGCA_site252],8.57 ± 0.42
14,AAAAAAAAAAAAAAAGTACACACTTTTGCGTACATG [CACACA_site3097],8.96 ± 0.33
15,AAAATATACATAAACACACACAAAACGTTTAAGAAA [CACACA_site1071],9.39 ± 0.35
16,ATATTAATTTTTATTACACACTCTCAATTTTTATTT [CACACA_site58],8.96 ± 0.36
17,GTTTAACTGTTTTATACACACAATGTATCCAATAAA [CACACA_site5612],8.94 ± 0.4
18,CTAGCAAATACATACACACACACACGGATACCTATA [CACACA_site7609],9.9 ± 0.3
19,TATATAACTTTATTTTTCTTTACTTATTTTATTTTA [GTGCAC_negctrl_site66],8.57 ± 0.59
20,AAAGAAAAAAAAAAAAGTACATAAATATAAAAAGAA [XGTACX_site6753],8.84 ± 0.59
21,TTTTTTAAAATATATATAATGAATTTTTTTTTTTTT [CACACA_negctrl_site1577],7.88 ± 0.58
22,ATATATATATATATATGTACATATTATTAATAATAT [XGTACX_site6667],9.42 ± 0.071
23,TATTTATATTTATATACACACTATATAACTCAAACA [CACACA_site6611],8.66 ± 0.54

row,Sequence,gcPBM binding intensity (ln)
1,AATTGTTCGATATATGCACACAGTTTTGTTATTTTT [CACACA_site1615],9.25 ± 0.34
2,ATACATATTAACAAGGTGCAAATGGATTTCATAAAA [GTGCAC_site9775],8.89 ± 0.51
3,TTTTTTTTTTTGTGAGTGCACGTATGAAGAGAAAAA,8.29 ± 0.35
4,GTATAATATGAACACACACACACACCCAAAAAAAAA [CACACA_site5152],10.3 ± 0.45
5,TTATGGAACCCCATTCGTACATAAATATTTTATATA [XGTACX_site7112],8.49 ± 0.35
6,GATATGATTACCTTATGGTGTTTTTGATGGATAGTT [CACACA_negctrl_site1504],8.89 ± 0.37
7,TTTTTTATTTTAATGTATTATTTTTATGTAATATAT [GTGCAC_negctrl_site391],8.54 ± 0.59
8,TATAATAATAATGATAGTACGTATGAGTTCAAAAAA [XGTACX_site608],8.88 ± 0.47
9,TATATACAAATATGCTGTACAAAAAAAAAAAAAAAA [XGTACX_site4732],8.59 ± 0.47
10,CGGTATTTTTTAATTTGTACGCATATACAATAATTA [XGTACX_site8603],8.7 ± 0.38
11,TTTTATTATTTATATACACACTTGCTGAAATGTTAT [CACACA_site5919],8.93 ± 0.47
12,TTCTTTATTTTTTCTACACACATTATGTATTCAAAG [CACACA_site3527],9.09 ± 0.54
13,TGAAAGAACCTGATTACACACATAAGTTATAAATAT [CACACA_site6165],9.03 ± 0.4
14,TGAAAGAATGTTAATAGTACACACAATTATTATATA [XGTACX_site7936],8.89 ± 0.47
15,ATTGATATTGTATAATGTACAGGAAAAAAAAAAAAA [XGTACX_site526],8.64 ± 0.51
16,TAAGAACTATTCAGTAGTACCTATATGGATTACTAA [XGTACX_site4278],8.73 ± 0.39
17,AAATAAAGATATATATATATATATATATATAATTTT [CACACA_negctrl_site30],9.46 ± 0.36
18,CATAAATCAGCCATAACACACATACCTATATACATA [CACACA_site6324],9.21 ± 0.26
19,AAAATGTGCATATTTGCACACTTCAATATATATATA [CACACA_site1791],9.56 ± 0.15
20,AATATAAAAAGGCACACACACAAAAAAAAAAAAAAA [CACACA_site896],9.46 ± 0.38
